Assay results reported in patent publication US11458122B2, “Methods for treating diseases and nerve injuries” (CHILDREN'S HOSPITAL MEDICAL CENTER, priority 2017, dated 2022).

Columns and labels:
[1] = system: human neurofibroma-derived Schwann cell lines SNF02.2 and SNF96.2; assay: Myelin gene expression in human SC lines by qRT-PCR; assay type: cell-based; details: SNF02.2 and SNF96.2, normalized to vehicle
From the text: (§1) PCR primer sequences are available upon request.

[2] = system: SCs isolated from neonatal rat sciatic nerve; assay: SC cultures treated with HDAC inhibitors: morphology, MPZ/phalloidin immunostaining, qRT-PCR; details: immunocytochemistry and qRT-PCR
Protocol: Rat SCs from sciatic nerves of newborn rats (1-2 days old) were isolated as described previously (Wu L M, et al. […] SCs were grown in DMEM/10% FBS (Life Technologies), supplemented with 10 ng/ml neuregulin 1 (NRG1 type III; 396-HB-050; R&D Systems), and 5 μM forskolin (Sigma, F6886), plus L-glutamine and penicillin/streptomycin, hereafter denoted as SC proliferation medium. Cells between passages 2 and 5 were used in all experiments. >95% SC purity was achieved, assessed by positive SOX10 and S100β immunoreactivity. To initiate differentiation, SCs were cultured in differentiation medium containing DMEM/0.5% FBS and 1 mM dibutyl cyclic AMP (Sigma, D0627) with L-glutamine and penicillin/streptomycin, for the length of time indicated in the text, depending on the assays used. Human neurofibroma-derived Schwann cell lines SNF02.2 (ATCC CRL-2885) and SNF96.2 (ATCC CRL-2884) were propagated in DMEM/10% FBS plus L-glutamine and penicillin/streptomycin. All tissue culture containers and coverslips were coated with 50 μg/ml poly-L-lysine (Sigma, P7890) in PBS for at least 30 min at room temperature and then rinsed with distilled water.
as §1

`Cc1ccc(NC(=O)CCCCCC(=O)Nc2ccccc2N)cc1` [PDA106, N1-(2-Aminophenyl)-N7-(4-methylphenyl)-heptanediamide] was tested, and the “transcript levels of myelination-associated genes EGR2, MBP and PMP22” value [1] was “Upregulation” and the “expression of mature SC markers MPZ and PMP22” value [2] was “induction”.

With `Nc1cc(F)ccc1NC(=O)/C=C/c1cnn(C/C=C/c2ccccc2)c1` [RGFP966, (2E)-N-(2-Amino-4-fluorophenyl)-3-[(2E)-1-(3-phenyl-2-propen-1-yl)-1H-pyrazol-4-yl]-2-propenamide] the “transcript levels of myelination-associated genes EGR2, MBP and PMP22” value [1] was “Upregulation” and the “expression of mature SC markers MPZ and PMP22” value [2] was “induction”.
